# About 12,000 (3.5%) of roughly 340,000 compounds were called active. The shares of active, inactive and inconclusive entries below differ from those in the screen. Calls follow the shape of the dose curve; as a rule, active = well fitted inhibition curve with a large enough effect; inconclusive = small, poorly fitted or top-dose-only effect, or another doubt; inactive = no such curve, though single readings can be large or run the other way. No potency is given beside an inconclusive call; the fits are too rough.
# Experiment: qHTS Assay for Inhibitors of Hepatitis C Virus (HCV)
# Details: Huh7.5.1 HCVcc-Cre (HCVcc is cell-culture hepatitis C virus) infection, luciferase reporter, 44 h; activity change, negative = inhibition: at 41.8 µM (top of the series) unless noted
# In short: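 Luciferase read-out (15 sec integration) after a 15 min room-temperature substrate step quantifies HCVcc-Cre infection. Cells, 1,000 per well, had compound added 4 h post-plating, then virus at ~0.5 moi, and were cultured 44 h.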
# % is scaled to controls: 0 for no effect and ±100 for the full control effect; potency is read from the fitted curve at half-maximal effect; tags tell the direction and shape of the fitted curve.
SMILES,Potency,"activity change, negative = inhibition"
COc1ccc(CC(=O)N/N=C/c2cccn2-c2ccc([N+](=O)[O-])cc2)cc1OC,"inconclusive [inhibitor, partial curve]",–
CCN1CCc2c(sc(NC(=O)c3ccc(S(=O)(=O)N(C)c4ccccc4)cc3)c2C(=O)NC)C1,"inconclusive [inhibitor, partial curve]",–
Cc1ccc(CNC(=O)CSc2nnc3n2CCCCC3)cc1,"inconclusive [inhibitor, single point]",–
Cn1c(-c2ccsc2)c(-c2cccs2)c2cc(-c3ccc4[nH]ccc4c3)ccc21,"inconclusive [inhibitor, full curve]",–
O=C(COc1coc(CN2CCN(c3cccc(Cl)c3)CC2)cc1=O)NC1CCCC1,"inconclusive [inhibitor, partial curve, poor fit]",–
CCCCn1nc(C(=O)Nc2cc(C(F)(F)F)ccc2N2CCOCC2)ccc1=O,"inconclusive [inhibitor, partial curve]",–
COc1ccc(NC(=O)COc2coc(CN3CCc4ccccc4C3)cc2=O)cc1,"inconclusive [inhibitor, single point]",–
CCC1(c2ccccc2)NC(=O)N(CC(=O)Nc2cc(C(F)(F)F)ccc2N2CCCC2)C1=O (centres undefined),–,inactive: -21.6%
NCCCCCc1cn([C@@H](CO)C(=O)NCCCCCCCCCCC(=O)N2CCNCC2)nn1,"inconclusive [inhibitor, single point]",–
COc1cc(OC)cc(-c2c(-c3cccs3)c3cc(-c4ccc(OC)cc4F)ccc3n2C)c1,"inconclusive [inhibitor, full curve]",–
CN(Cc1nc2ccccc2c(=O)[nH]1)C(=O)c1ccccc1OCc1ccc(Cl)cc1,"inconclusive [inhibitor, single point]",–
CCOc1ccc(N)cc1OC,–,inactive: -21.1%
CC(C)CCNC(=O)C1CCC(CNc2c(N3CCCC3)c(=O)c2=O)CC1 (centres undefined),–,inactive: 23.4%
COc1ccc(/C=C/C(=O)NC(=S)NN2CCCCC2c2cccnc2)cc1 (centres undefined),"inconclusive [inhibitor, single point]",–
C[C@@H](C(O)c1ccccc1)N(C)C(=O)CCc1ccccc1 (some centres undefined),–,inactive: 2.83%
CCCCN(CCCC)C(=O)/C=C/c1cccc([N+](=O)[O-])c1,"inconclusive [inhibitor, single point]",–
COc1ccc(S(=O)(=O)N2CCC(C(=O)Nc3cccc(Cl)c3)CC2)cc1OC,"inconclusive [inhibitor, partial curve]",–
CC(C)(C)c1ccc(/C=C/C(=O)c2ccc(NC3=NCCCS3)cc2)cc1,active: 11.2 µM,–
CCOCC(=O)Nc1cc(C(=O)Nc2cccc(C)c2C)ccc1Cl,–,inactive: -9.03%
Cc1ccc(NCSc2ccc(Cl)cc2)cc1,active: 10 µM,–
COc1cccc(C(=O)NCC(c2cccs2)N2CCc3ccccc32)c1 (centres undefined),"inconclusive [inhibitor, single point]",–
COc1cc(C2C(C#N)=C(N)Oc3c2ccc2ccccc32)ccc1OCC(=O)Nc1ccccc1C (centres undefined),active: 8.91 µM,–
O=C(NCCc1csc(-c2ccccc2)n1)c1c(F)cccc1Cl,–,inconclusive: -59.2% [inhibitor]
COc1ccc(N2CCN(Cc3nc(N)nc(Nc4ccc(C)c(Cl)c4)n3)CC2)cc1,active: 10 µM,–
c1ccc(C2CCC(N3CCN(c4ccccc4)CC3)CC2)cc1 (centres undefined),"inconclusive [inhibitor, single point]",–

SMILES,Potency,"activity change, negative = inhibition"
COc1cc(NC(=O)c2ccc(F)cc2)ccc1NC(=O)c1cc2ccccc2o1,"inconclusive [inhibitor, partial curve, poor fit]",–
CCOP(=O)(OCC)/C(C#N)=C/c1c[nH]c2ccccc12,"inconclusive [inhibitor, partial curve, poor fit]",–
CCOc1ccccc1C(=O)OCC(=O)Nc1ccc(OC(F)F)cc1,"inconclusive [inhibitor, single point]",–
CCCNC(=O)c1c[nH]c2ccc(S(=O)(=O)N(C)c3ccc(OCC)cc3)cc2c1=O,active: 22.4 µM,–
CCOc1ccc(-c2cc(CCCC(=O)Nc3cc(OC)ccc3OC)no2)cc1,"inconclusive [inhibitor, full curve]",–
C=CCSc1nnc2c(n1)[nH]c1c(C)cccc12,active: 7.94 µM,–
O=S(=O)(NCC1OCCc2ccccc21)c1ccc(S(=O)(=O)N2CCOCC2)cc1 (centres undefined),–,inactive: -4.94%
C/C(=N\NC(=O)c1[nH]c2c([N+](=O)[O-])cc(C)cc2c1-c1ccccc1)c1cccnc1,"inconclusive [inhibitor, partial curve, poor fit]",–
CCC(Sc1ccccc1C(=O)O)C(=O)O (centres undefined),–,inactive: 16.2%
COc1cc(/C=N/N=C(N)N)ccc1OCc1ccccc1Cl,active: 14.1 µM,–
Cc1cc2[nH]c3ccccc3c2cn1,"inconclusive [inhibitor, single point]",–
CCOC(=O)CSC1=C(C#N)C(c2ccc(Cl)cc2)C(C(=O)OC)C(=O)N1 (centres undefined),"inconclusive [inhibitor, single point]",–
CC(C)c1nc(N2CCN(C(=O)c3ccco3)CC2)c2c3c(sc2n1)CCCC3,active: 22.4 µM,–
COc1cccc(-n2c(C)cc(/C=C3/C(=N)N4C(=NC3=O)SN=C4S(C)(=O)=O)c2C)c1,–,inconclusive: -39.5% [inhibitor]
Cc1ccc(Oc2nc(CN3CCOCC3)nc3sc4c(c23)CCC(C)C4)cc1 (centres undefined),"inconclusive [inhibitor, single point]",–
COc1ccc(-c2ccc(S(=O)(=O)N3CCCC3)cc2)cc1,"inconclusive [inhibitor, single point]",–
CN(CC(=O)Nc1cccc(S(=O)(=O)NC2=NCCC2)c1)Cc1ccccc1Cl,–,inactive: -1.93%
O=C(Nc1c(Cl)cc(Cl)cc1C(=O)NCc1cccnc1)c1ccc(Cl)cc1Cl,–,inactive: 24.9%
N=C(N)SCc1ccc(Cl)c2ccccc12,–,inactive: 1.6%
Cc1cc(N2CCOCC2)ccc1/C=C\[N+](=O)[O-],"inconclusive [inhibitor, single point]",–
Cc1ccc(Cn2c(=N)c(S(=O)(=O)c3ccc(Br)cc3)cc3c(=O)n4ccccc4nc32)cc1,–,inactive: -8.36%
CCCCC(=O)N/N=C(/C)C1=C(C)C(C)(C)OC1=O,–,inactive: 5.77%
CCN(CC)CCOc1ccc2c(c1)C(=NO)c1cc(OCCN(CC)CC)ccc1-2,active: 10 µM,–
O=c1cc(CNc2cc(C(F)(F)F)cc(C(F)(F)F)c2)nc2sccn12,"inconclusive [inhibitor, partial curve]",–
CCOc1ccc(-n2c(CC)nc3ccccc3c2=O)cc1,–,inactive: 0.63%

SMILES,Potency,"activity change, negative = inhibition"
O=C(c1ccccc1[N+](=O)[O-])N1CCC2(CC1)OCCO2,–,inactive: 17.8%
COc1ccc(OC(C)C(=O)Nc2ccccc2F)cc1 (centres undefined),–,inactive: -2.24%
Oc1ccc(Cl)cc1Cc1cc(Cl)ccc1O,"inconclusive [inhibitor, single point]",–
O=C(CCCN1C(=O)S/C(=C\C=C\c2ccccc2)C1=O)Nc1ccc(O)cc1,active: 12.6 µM,–
CCC(C)(NC(=O)c1ccc(=O)[nH]c1)C(=O)NC1CCCC1 (centres undefined),–,inactive: 1.12%
CCOC(=O)c1sc(N(C)C)nc1-c1ccccc1,"inconclusive [inhibitor, full curve, poor fit]",–
COc1ccc(/C=C/C(=O)c2ccccc2)cc1COc1ccc(F)cc1,"inconclusive [inhibitor, full curve]",–
CSc1ncccc1C(=O)OCC(=O)c1[nH]c(C)c(C(C)=O)c1C,–,inactive: -23.8%
COC(=O)N1c2ccccc2CCc2ccccc21,"inconclusive [inhibitor, single point]",–
CC(Sc1nnc(-c2cccs2)n1-c1ccccc1)C(=O)NCc1ccc2c(c1)OCO2 (centres undefined),–,inactive: -14.4%
Cc1cccn2c(CN(C)C3CCCc4ccccc43)c(C(=O)N3CCOCC3)nc12 (centres undefined),"inconclusive [inhibitor, single point]",–
CC(/C=C/c1ccc2c(c1)OCO2)=N\NC(=O)c1cccc([N+](=O)[O-])c1,"inconclusive [inhibitor, partial curve]",–
COc1cccc(CN(C)C(=O)CNC(=O)c2cccs2)c1OC,–,inactive: 2.22% [at 8.37 µM]
NC(=O)c1cccc2cc3ccccc3cc12,active: 11.2 µM,–
Cn1c(CCN2CCOCC2)nc2cc(NC(=O)COc3ccc(Cl)cc3)ccc21,"inconclusive [inhibitor, single point]",–
C=CCSc1ncc(C(=O)OCC)c(N)n1,–,inactive: 17.3%
CCCCC(=O)Nc1sc2c(c1-c1nc3ccccc3s1)CCN(C(C)=O)C2,"inconclusive [inhibitor, single point]",–
CCN(CC(=O)Nc1cc(S(=O)(=O)N2CCCCC2)ccc1Cl)Cc1ccccc1,"inconclusive [inhibitor, single point]",–
Cc1ccc(NC(=O)CCSc2nnnn2-c2ccc3c(c2)OCO3)cc1C,"inconclusive [inhibitor, single point]",–
NC(=S)N1OC[C@@H]2COc3ccc4ccccc4c3[C@@H]21,"inconclusive [inhibitor, partial curve]",–
CCOC(=O)Nc1ccc(OC)c([N+](=O)[O-])c1,–,inactive: -7.64%
COc1cccc(CN(C)C(=O)c2cccc(S(=O)(=O)NCc3ccccc3)c2)c1OC,–,inactive: -14.5%
COc1cc(NC(=O)c2sc3ncn(CC(=O)N4CCCC(C)C4)c(=O)c3c2C)cc(OC)c1OC (centres undefined),–,inactive: -14.2%
CCN(CC)S(=O)(=O)c1ccc(O)c(NC(=O)c2ccc(N3CCOCC3)c([N+](=O)[O-])c2)c1,"inconclusive [inhibitor, full curve, poor fit]",–

# Reference: PubChem BioAssay AID651820 (National Center for Advancing Translational Sciences (NCATS), 2012)
